PubChem BioAssay AID504339 (National Center for Advancing Translational Sciences (NCATS), 2011)
About 17,000 (4.4%) of roughly 390,000 compounds were called active. Inconclusive means that the source gave no clear call. Such entries were picked first, then a sample of the others. The call rests on the fitted dose curve; in most records, active means well fitted inhibition curve with a large enough effect; inconclusive means small, poorly fitted or top-dose-only effect; inactive means no such curve, though single readings can be large or run the other way. Potencies of inconclusive entries are doubtful fits and often do not repeat.

Target: Lysine-specific demethylase 4A (Homo sapiens) (UniProt O75164)
Assay: qHTS Assay for Inhibitors of JMJD2A-Tudor Domain; further: nearly all actives have a fitted effect of over 50% in size
Details: AlphaScreen JMJD2A-Tudor / H3K4me3 peptide binding; activity change, negative = inhibition: at 114 µM (top of the series)
On the % scale 0 is the no-effect control and ±100 the full control effect; potency means the concentration at half of the fitted maximal effect; tags describe the fitted curve by direction and shape.

Sequence of UniProt O75164 (O75164 whole entry, looked up, the tested form may be a part): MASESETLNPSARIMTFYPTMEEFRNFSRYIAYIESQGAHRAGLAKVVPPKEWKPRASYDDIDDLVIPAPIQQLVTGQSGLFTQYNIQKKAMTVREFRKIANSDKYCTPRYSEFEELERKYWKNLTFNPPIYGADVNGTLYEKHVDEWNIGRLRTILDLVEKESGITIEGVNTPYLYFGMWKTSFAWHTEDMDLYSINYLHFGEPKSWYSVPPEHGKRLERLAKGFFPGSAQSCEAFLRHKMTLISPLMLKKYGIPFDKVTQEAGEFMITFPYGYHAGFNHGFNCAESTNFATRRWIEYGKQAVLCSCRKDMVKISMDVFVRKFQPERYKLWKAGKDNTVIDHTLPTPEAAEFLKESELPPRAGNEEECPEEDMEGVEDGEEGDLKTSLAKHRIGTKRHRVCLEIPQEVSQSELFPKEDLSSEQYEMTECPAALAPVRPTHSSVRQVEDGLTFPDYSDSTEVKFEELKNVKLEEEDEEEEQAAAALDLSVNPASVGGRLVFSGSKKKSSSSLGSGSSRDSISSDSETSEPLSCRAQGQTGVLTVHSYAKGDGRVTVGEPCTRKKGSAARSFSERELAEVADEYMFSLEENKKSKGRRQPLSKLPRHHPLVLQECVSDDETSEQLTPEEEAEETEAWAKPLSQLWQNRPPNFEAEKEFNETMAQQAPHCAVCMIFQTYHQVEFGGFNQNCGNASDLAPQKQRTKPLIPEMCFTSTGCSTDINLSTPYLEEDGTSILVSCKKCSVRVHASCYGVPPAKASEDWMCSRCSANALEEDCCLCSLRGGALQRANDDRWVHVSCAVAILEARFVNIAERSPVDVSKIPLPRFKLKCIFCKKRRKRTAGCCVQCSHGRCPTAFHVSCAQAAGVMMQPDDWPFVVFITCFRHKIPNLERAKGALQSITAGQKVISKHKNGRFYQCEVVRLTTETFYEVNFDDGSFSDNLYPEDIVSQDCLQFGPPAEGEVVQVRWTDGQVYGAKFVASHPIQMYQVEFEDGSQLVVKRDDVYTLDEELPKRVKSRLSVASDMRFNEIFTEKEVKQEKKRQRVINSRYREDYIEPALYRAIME

| Structure (SMILES) | Potency | activity change, negative = inhibition |
| --- | --- | --- |
| Cc1ccc(C(=O)Nc2ccc(C(=O)N/N=C/c3cccnc3)cc2)cc1 | inconclusive: 89.1 µM [inhibitor, partial curve, poor fit] |  |
| COc1ccc(NC(=O)CSc2nn3c(=O)c(C)nnc3s2)cc1 | inconclusive: 100 µM [inhibitor, single point] |  |
| CCN1/C(=C/C(C)=C/c2sc3ccccc3[n+]2CC)Sc2ccccc21 | active: 17.8 µM |  |
| CCCCSc1nnc2c(n1)OC(c1ccc(Br)s1)N(C(C)=O)c1ccccc1-2 (stereo not given) | inconclusive: 22.4 µM [inhibitor, full curve, poor fit] |  |
| COc1ccc(CCNC(=O)CSc2nnnn2-c2ccc(OC)c(OC)c2)cc1OC | inconclusive: 14.1 µM [inhibitor, full curve, poor fit] |  |
| Cc1ccc(CNc2ccc3c(c2)OCO3)cc1 | active: 44.7 µM |  |
| COc1cc(OC)cc(C(=O)NNC(=O)Cc2cccs2)c1 | inconclusive: 56.2 µM [inhibitor, partial curve] |  |
| Cc1nn(C(=O)c2ccc(Cl)cc2)c(C)c1S(=O)(=O)N1CCOCC1 |  | inactive: -18.2% |
| CCCOc1ccc(-c2nc(C#N)c(N3CCN(CC)CC3)o2)cc1 | inconclusive: 50.1 µM [inhibitor, partial curve] |  |
| CC(Oc1ccc(/C=N/NC(=O)Cc2cccc3ccccc23)cc1)C(=O)O (stereo not given) |  | inactive: -21.8% |
| O=C(O)c1cccc(S(=O)(=O)N2CCN(S(=O)(=O)c3ccc4c(c3)OCCO4)CC2)c1 | inconclusive: 79.4 µM [inhibitor, partial curve] |  |
| Cc1cn2c(=O)cc(COC(=O)c3cccc(NC(=O)c4ccccc4Cl)c3)nc2s1 |  | inactive: -18.2% |
| Cc1ccc(C)c(N2CCN(S(=O)(=O)c3ccc4c(c3)NC(=O)CS4)CC2)c1 | inconclusive: 100 µM [inhibitor, partial curve] |  |
| C#CCOCCOCCOCCNc1nc(N2CCN(C(=O)[C@H](CCCCN)n3cc(CN)nn3)CC2)nc(N2CCN(C(=O)[C@H](CCC(=O)O)n3cc([C@@H](N)CCSC)nn3)CC2)n1 | active: 89.1 µM |  |
| CCOc1cc(/C=N/Nc2nncc(-c3ccccc3)n2)ccc1O | inconclusive: 31.6 µM [inhibitor, full curve] |  |
| Nc1nonc1-n1nnc(C(=O)N/N=C/c2ccc(O)cc2)c1CN1CCCCCC1 | inconclusive: 25.1 µM [inhibitor, full curve, poor fit] |  |
| Cc1ccc(C)c(CN2C(=O)c3ccccc3S(=O)(=O)c3ccc(C(=O)NCCCN4CCCC(C)C4)cc32)c1 (stereo not given) | inconclusive: 56.2 µM [inhibitor, partial curve] |  |
| CC(C)c1ccc(CN(C(=O)c2ccco2)C2CCS(=O)(=O)C2)cc1 (stereo not given) |  | inactive: -20.4% |
| O=S(=O)(NN=C1CCCCC1)c1ccccc1 |  | inactive: 3.52% |
| COC(=O)c1ccc(NS(=O)(=O)c2ccccc2)o1 |  | inactive: -27% |
| Cc1ccc(C(c2cccc(Br)c2)c2c(C)[nH]c3ccccc23)s1 (stereo not given) | inconclusive: 8.91 µM [inhibitor, full curve] |  |
| Cc1cc(/C=N/NC(=O)c2cccc(F)c2)c(C)n1-c1ccccc1 | inconclusive: 50.1 µM [inhibitor, partial curve] |  |
| COC(=O)[C@@]1(Cc2ccc(F)cc2)[C@H]2c3cc(C(=O)N4CCCC4)n(Cc4ccc(C(F)(F)F)nc4)c3C[C@H]2CN1C(=O)c1ccccc1 | inconclusive: 35.5 µM [inhibitor, full curve, poor fit] |  |

| Structure (SMILES) | Potency | activity change, negative = inhibition |
| --- | --- | --- |
| CCC(=O)N1CCc2cc(S(=O)(=O)N3CCCCC3CC)ccc21 (stereo not given) |  | inactive: -12.8% |
| COc1cccc(CC(=O)OCC(=O)NCc2ccc3c(c2)OCO3)c1 |  | inactive: -5.52% |
| O=c1c2c(c(-c3ccccc3)nn1Cc1ccccc1)CCCC2 |  | inactive: 6.69% |
| Nc1ccc(O)cc1C(=O)OCC(=O)C12CC3CC(CC(C3)C1)C2 | inconclusive: 56.2 µM [inhibitor, partial curve, poor fit] |  |
| COc1cc(NC(=O)c2ccccn2)cc(OC)c1OC | inconclusive: 12.6 µM [inhibitor, full curve] |  |
| O=C(COC(=O)c1ccccc1O)Nc1ccc(S(=O)(=O)N2CCCCC2)cc1 |  | inactive: -15.3% |
| O=[N+]([O-])c1ccc(Cl)c(/C=N/N2CCN(C3c4ccccc4-c4ccccc43)CC2)c1 | inconclusive: 22.4 µM [inhibitor, partial curve] |  |
| COc1ccc(-c2csc(NC(=O)CSc3nc(C)nc4sc(C(=O)O)c(C)c34)n2)cc1 | active: 22.4 µM |  |
| COc1cccc(/C=N/Nc2nc(N3CCCC3)nc(N3CCCC3)n2)c1O | inconclusive: 56.2 µM [inhibitor, partial curve] |  |
| COc1ccc(N=C2C(=O)Nc3c(C)cccc32)cc1 | inconclusive: 79.4 µM [inhibitor, single point] |  |
| Cc1ccc(NS(=O)(=O)c2coc(C(N)=O)c2)cc1F | inconclusive: 20 µM [inhibitor, full curve] |  |
| O=[N+]([O-])c1ccc(N2CCOCC2)cc1N1CCCCC1 | inconclusive: 56.2 µM [inhibitor, partial curve, poor fit] |  |
| Cc1nn(C(=O)c2ccc(Cl)cc2)c(C)c1S(=O)(=O)N1CCCCCC1 |  | inactive: 37.4% |
| CCN(CC)c1nc2ccccc2nc1C(=O)Nc1cc(OC)c(OC)c(OC)c1 | inconclusive: 89.1 µM [inhibitor, partial curve] |  |
| Oc1c(CN2CCN(c3ccc(F)cc3)CC2)cc(Cl)c2cccnc12 | active: 25.1 µM |  |
| CN(CCCn1c(=S)[nH]c2ncccc2c1=O)Cc1ccccc1 | inconclusive: 50.1 µM [inhibitor, partial curve] |  |
| COc1ccc(NC(=O)CSc2nc(SC)ns2)cc1 |  | inactive: -4.29% |
| COc1ccc(C(NCC(=O)Nc2c(C)cccc2C)c2ccccc2)cc1 (stereo not given) | active: 20 µM |  |
| Cc1cccc2sc(N(CCCN(C)C)C(=O)c3ccc4ncsc4c3)nc12 | inconclusive: 44.7 µM [inhibitor, partial curve, poor fit] |  |
| Cc1ccc(N2CCn3c2nc2c3c(=O)n(CCCc3ccccc3)c(=O)n2C)cc1C |  | inactive: -0.329% |
| CCOCCCNCC(=O)NCC1CCCCC1 | active: 20 µM |  |
| Cn1c(N2CCN(C(=O)Nc3ccc(C(F)(F)F)cc3)CC2)nc2ccccc21 | inconclusive: 39.8 µM [inhibitor, single point] |  |
